These results are taken from the supplement of paper PMC5655136.

Read counts after selection give these values, which scatter widely.
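Note: shRNA barcodes quantified by deep sequencing of PCR amplicons from cellular DNA, counts expressed as percent of each subpool, ratio averaged over two biological duplicates.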

The test system of the first series is NB7. In words: fold depletion of shRNA, plasmid library share / infected cells without Dox share (9 days) (ratio); higher = more depleted after infection (more toxic, leaky expression from a Tet-inducible vector; NB7 is a neuroblastoma line without caspase-8). Conditions: shRNA pool: CD95L ORF + CD95L 3'UTR + Venus libraries.
Regarding AAACTAACAGATAAGCAAGAG, the “fold depletion of shRNA” value was 0.899.

For the sequence GAGCTGGACGGCGACGTAAAC, the “fold depletion of shRNA” value was determined as 1.56.

Turning to ACCAGTGCTGATCATTTATAT, the “fold depletion of shRNA” value was 0.913.

CACCTACAGAAGGAGCTGGCA: the “fold depletion of shRNA” value was 6.35.

As for ATGAGGAACTCTAAGTATCCC, the “fold depletion of shRNA” value came to 1.9.

Consider GAATGTTGTATTCAGTGAGGG, for which the “fold depletion of shRNA” value worked out at 2.74.

As for CAAGACCCGCGCCGAGGTGAA, the “fold depletion of shRNA” value came out at 0.564.

With CAGATGCACACAGCATCATCT, the “fold depletion of shRNA” value is 0.931.

Take TGACCCTGAAGCTGATCTGCA: the “fold depletion of shRNA” value is 0.778.

Regarding GATGGAAAAGGAAGACTAGAG, the “fold depletion of shRNA” value is 3.21.

Take CAGTCCACCCCCTGAAAAAAA: the “fold depletion of shRNA” value was 3.82.

Consider CTTCCCTGTCCAACCTCTGTG, for which the “fold depletion of shRNA” value was 1.59.

Consider TTAGGCAGATTGAAAAGGACA, for which the “fold depletion of shRNA” value was found to be 0.704.

For the sequence AAAAGGACACCTTTTAACTCA, the “fold depletion of shRNA” value was 1.7.

In the case of AACCGCATCGAGCTGAAGGGC, the “fold depletion of shRNA” value was 1.93.

Take CAAAGACCCCAACGAGAAGCG: the “fold depletion of shRNA” value was determined as 0.771.

TCCCTGGGCCCCTCCAGGCAC: the “fold depletion of shRNA” value came out at 1.89.

For CTGAAAGAGGCCAATGCCCCA, the “fold depletion of shRNA” value was determined as 1.15.

With CTATATCACCGCCGACAAGCA, the “fold depletion of shRNA” value came out at 1.03.

On to ATATCCTGAGCCATCGGTGAA, for which the “fold depletion of shRNA” value is 0.675.

As for CTTTCAGATACATGGTTGTGA, the “fold depletion of shRNA” value was found to be 3.54.

As to TCCTATAATATAATAAATATT, the “fold depletion of shRNA” value was found to be 0.884.

With AGTATTTAGGCAGATTGAAAA, the “fold depletion of shRNA” value came to 1.61.

Regarding CGGCGTGCAGCTCGCCGACCA, the “fold depletion of shRNA” value worked out at 0.777.

AGAGAATGTAGATATTGTGAA: the “fold depletion of shRNA” value is 0.871.

Turning to CAGTCCGCCCTGAGCAAAGAC, the “fold depletion of shRNA” value stood at 1.31.

On to CATATCCTGAGCCATCGGTGA, for which the “fold depletion of shRNA” value was found to be 1.46.

Consider GGTGGGCCTTGCTACCTCAAG, for which the “fold depletion of shRNA” value amounted to 2.79.

As for GGCGACGGCCCCGTGCTGCTG, the “fold depletion of shRNA” value amounted to 0.407.

On to ATATTTATGTAGATGTGCATT, for which the “fold depletion of shRNA” value came out at 0.95.

For the sequence CAACTACAACAGCCACAACGT, the “fold depletion of shRNA” value was 2.56.

Regarding TGTCTGTAGCTCCTCAACTCA, the “fold depletion of shRNA” value was 9.85.

As to CGAGGTGAAGTTCGAGGGCGA, the “fold depletion of shRNA” value is 0.907.

For TGGAGGAATATGACGGAAGAA, the “fold depletion of shRNA” value is 2.46.

As for ACACAGCATGTGTATTTCCAG, the “fold depletion of shRNA” value was 2.29.

On to CGCCACAACATCGAGGACGGC, for which the “fold depletion of shRNA” value amounted to 0.756.

Turning to CTGTAGCTCCTCAACTCACCT, the “fold depletion of shRNA” value is 0.423.

Take TTTATGTAGATGTGCATTTTT: the “fold depletion of shRNA” value stood at 2.11.

As to CACCGGGGTGGTGCCCATCCT, the “fold depletion of shRNA” value stood at 1.08.

CAACCTGCCCCTGAGCCACAA: the “fold depletion of shRNA” value was 1.31.

For ATTGTGAAGTACATATTAGGA, the “fold depletion of shRNA” value came out at 0.665.

As to CGGTGAAACTAACAGATAAGC, the “fold depletion of shRNA” value worked out at 0.274.

For the sequence TGGCAGCATCTTCACTTCTAA, the “fold depletion of shRNA” value was 16.2.

As for TTTGAGGTCAAGTAAGAAGAC, the “fold depletion of shRNA” value was 6.24.

Regarding AATGTTTATGAGCCAGACAAA, the “fold depletion of shRNA” value worked out at 4.43.

For TCAAAATGTCTGTAGCTCCTC, the “fold depletion of shRNA” value was found to be 4.8.

Consider GGTCTACATGAGGAACTCTAA, for which the “fold depletion of shRNA” value was 1.51.

With GAGCTGAGGAAAGTGGCCCAT, the “fold depletion of shRNA” value amounted to 0.268.

Still in this series, the particulars now being: shRNA pool: CD95 ORF + CD95 3'UTR + Venus libraries.
As for CTGTAGTATGAATGTAATCAG, the “fold depletion of shRNA” value turned out to be 1.14.

Consider GAGCTGGACGGCGACGTAAAC, for which the “fold depletion of shRNA” value was found to be 1.95.

With TTATACAATATTTCAATTGTG, the “fold depletion of shRNA” value came out at 1.71.

GAAACAGTGGCAATAAATTTA: the “fold depletion of shRNA” value was determined as 1.12.

As to GAATCTCCAACTTTAAATCCT, the “fold depletion of shRNA” value worked out at 0.496.

With ACCAAGTGCAAAGAGGAAGGA, the “fold depletion of shRNA” value amounted to 0.826.

Regarding GGAACCACCTAAAGAACTTCC, the “fold depletion of shRNA” value turned out to be 2.41.

Regarding CAAGACCCGCGCCGAGGTGAA, the “fold depletion of shRNA” value came to 0.905.

Take ATGGCAGCTTATACATAGCAA: the “fold depletion of shRNA” value amounted to 0.765.

TGACCCTGAAGCTGATCTGCA: the “fold depletion of shRNA” value amounted to 1.16.

For ACATAGAAAACATTAAATTAT, the “fold depletion of shRNA” value was 0.966.

CTATTATATATGTGTATGCAT: the “fold depletion of shRNA” value was 1.19.

As to TCTGAGAAGATCATATTTATG, the “fold depletion of shRNA” value was determined as 0.756.

With AGATTATCGTCCAAAAGTGTT, the “fold depletion of shRNA” value is 1.23.

Consider ACTATCCTACGTTTAAATATC, for which the “fold depletion of shRNA” value is 0.846.

In the case of GATACCTGGAACCACCTAAAG, the “fold depletion of shRNA” value turned out to be 4.14.

On to CTGAAACAGTGGCAATAAATT, for which the “fold depletion of shRNA” value is 2.35.

Consider GGATGAACCAGACTGCGTGCC, for which the “fold depletion of shRNA” value is 1.58.

As to AACCGCATCGAGCTGAAGGGC, the “fold depletion of shRNA” value was 1.15.

As to CAAAGACCCCAACGAGAAGCG, the “fold depletion of shRNA” value turned out to be 0.881.

With TAAATTTATCTGATGTTGACT, the “fold depletion of shRNA” value was 0.985.

With CTATATCACCGCCGACAAGCA, the “fold depletion of shRNA” value is 0.806.

On to TCCAAAAGTGTTAATGCCCAA, for which the “fold depletion of shRNA” value turned out to be 2.21.

Consider TCTGGCATCTAACATATGATT, for which the “fold depletion of shRNA” value worked out at 1.44.

As for CCTGCCAAGAAGGGAAGGAGT, the “fold depletion of shRNA” value was found to be 0.898.

Turning to TTGCTAGATTATCGTCCAAAA, the “fold depletion of shRNA” value is 0.768.

Consider CGGCGTGCAGCTCGCCGACCA, for which the “fold depletion of shRNA” value was determined as 1.24.

In the case of GCAGAAGATGTAGATTGTGTG, the “fold depletion of shRNA” value came to 1.66.

Consider TAAAATCTAGTTGGGAAAACA, for which the “fold depletion of shRNA” value came to 1.54.

CAGTCCGCCCTGAGCAAAGAC: the “fold depletion of shRNA” value came to 0.59.

On to ACATTGATTAAAGATCTCAAA, for which the “fold depletion of shRNA” value was 1.05.

In the case of TGCAGAAGATGTAGATTGTGT, the “fold depletion of shRNA” value amounted to 1.28.

As for GGGGATGAACCAGACTGCGTG, the “fold depletion of shRNA” value was determined as 1.15.

As to GGCGACGGCCCCGTGCTGCTG, the “fold depletion of shRNA” value came out at 1.28.

Regarding TTTTTTTGTAACTCTACTGTA, the “fold depletion of shRNA” value was 1.82.

With CAACTACAACAGCCACAACGT, the “fold depletion of shRNA” value stood at 2.33.

On to ATGACACTAAGTCAAGTTAAA, for which the “fold depletion of shRNA” value was 0.977.

In the case of CGAGGTGAAGTTCGAGGGCGA, the “fold depletion of shRNA” value is 0.932.

As for CGCCACAACATCGAGGACGGC, the “fold depletion of shRNA” value was found to be 1.38.

On to CACCGGGGTGGTGCCCATCCT, for which the “fold depletion of shRNA” value came to 1.18.

AAGGAAAACCAAGGTTCTCAT: the “fold depletion of shRNA” value was 3.08.

Take AAGGAAGTACAGAAAACATGC: the “fold depletion of shRNA” value was found to be 1.17.

Regarding CGCGATCACATGGTCCTGCTG, the “fold depletion of shRNA” value stood at 0.892.

Turning to CTGTCCTCCAGGTGAAAGGAA, the “fold depletion of shRNA” value was found to be 2.78.

For the sequence AGAATTTAAATAAGGCTCTAC, the “fold depletion of shRNA” value is 1.29.

Regarding GGAATTATAAAATATAGGTAA, the “fold depletion of shRNA” value was 0.819.

As to GAGTGTATGCAGAGGATGAAA, the “fold depletion of shRNA” value was 2.4.

TTTTCCCCCACCCCCGAAAAT: the “fold depletion of shRNA” value was determined as 12.7.

As for TTACCTCTGATAATTCTAGAG, the “fold depletion of shRNA” value was determined as 0.855.

As to AGTATTACTAGAGCTTTGCCA, the “fold depletion of shRNA” value is 1.39.

As to AAGTGTTAATGCCCAAGTGAC, the “fold depletion of shRNA” value is 3.54.

GACTGCCCTTAGAAATTCTAG: the “fold depletion of shRNA” value came to 4.2.

On to GATCTCAAAAAAGCCAATCTT, for which the “fold depletion of shRNA” value amounted to 1.2.
